Data: paper PMC4336329 (PLoS ONE, 2015)
Hit rate of the full screen: of about 310,000 compounds, about 2,200 (0.71%) showed an effect of 50% or more. The effect is printed as a negative number. Some of the results follow.

molecular target: human ether-à-go-go-related gene (hERG) potassium channel (human, UniProt Q12809); assay: primary screen, population patch clamp on CHO cells stably expressing hERG
Sequence (Q12809 whole entry, looked up): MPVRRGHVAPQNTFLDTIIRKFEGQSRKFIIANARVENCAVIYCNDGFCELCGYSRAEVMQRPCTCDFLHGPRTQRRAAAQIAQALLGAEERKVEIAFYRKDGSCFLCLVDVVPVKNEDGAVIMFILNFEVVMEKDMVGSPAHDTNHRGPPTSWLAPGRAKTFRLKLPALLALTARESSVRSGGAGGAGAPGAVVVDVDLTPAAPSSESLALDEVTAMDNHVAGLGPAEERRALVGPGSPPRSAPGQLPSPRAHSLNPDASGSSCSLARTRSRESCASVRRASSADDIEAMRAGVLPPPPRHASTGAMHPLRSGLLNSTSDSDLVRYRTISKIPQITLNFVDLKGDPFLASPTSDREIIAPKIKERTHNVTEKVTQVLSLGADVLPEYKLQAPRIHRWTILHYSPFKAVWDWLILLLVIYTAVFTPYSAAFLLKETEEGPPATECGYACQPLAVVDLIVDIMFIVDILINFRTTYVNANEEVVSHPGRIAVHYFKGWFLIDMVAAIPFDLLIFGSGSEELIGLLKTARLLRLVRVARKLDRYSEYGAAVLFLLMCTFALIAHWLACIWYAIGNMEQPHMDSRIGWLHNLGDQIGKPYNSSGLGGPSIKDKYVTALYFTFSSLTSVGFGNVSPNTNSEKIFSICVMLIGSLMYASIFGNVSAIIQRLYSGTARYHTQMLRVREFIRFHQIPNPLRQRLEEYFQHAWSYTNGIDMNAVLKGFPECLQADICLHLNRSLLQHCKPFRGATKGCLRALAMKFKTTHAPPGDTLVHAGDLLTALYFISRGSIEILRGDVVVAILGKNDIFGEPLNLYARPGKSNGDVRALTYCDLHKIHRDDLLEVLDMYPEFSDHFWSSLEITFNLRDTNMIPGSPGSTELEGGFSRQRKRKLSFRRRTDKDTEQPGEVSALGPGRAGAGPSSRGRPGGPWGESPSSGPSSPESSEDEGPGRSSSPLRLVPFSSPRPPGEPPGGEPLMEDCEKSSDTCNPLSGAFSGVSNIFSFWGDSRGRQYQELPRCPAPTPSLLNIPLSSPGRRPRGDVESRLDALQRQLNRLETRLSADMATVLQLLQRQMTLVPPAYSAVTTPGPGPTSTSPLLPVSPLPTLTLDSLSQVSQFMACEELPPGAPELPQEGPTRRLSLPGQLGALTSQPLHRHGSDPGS

SMILES | hERG current change (%, negative = inhibition) at 1uM
CCOc1ccc(C(C)=O)cc1N1C(=O)C2C(C1=O)C1C=CC2C12CC2 (stereo not shown) | 10.6%
COc1cc(N(Cc2ccccc2)Cc2ccccc2)c2ncn(C(C)C)c2c1 | 8.78%
COc1cccc(/C=N/Nc2nn3cnnc3c3ccccc23)c1 | -2.21%
CCOC(=O)C1(S(=O)(=O)c2ccc(Cl)cc2)CCN(Cc2ccc(Cl)cc2)CC1 | 23%
Cc1cc(C)c(NC(=O)C2CCCN2C)c(C)c1 (stereo not shown) | 22.4%
Cc1c(C(=O)OC(C)C)sc2nc[nH]c(=O)c12 | 9.66%
CC(C)CC(=O)Nc1ccc(-c2cn3ccsc3n2)cc1 | 12.1%
CC(C)OC(=O)c1nnn(-c2nonc2N)c1CN1CCCCCC1 | -5.97%
CCN(CC)S(=O)(=O)c1ccc(N=Nc2c(C)[nH]n(C(N)=S)c2=O)cc1 | 7.3%
CC1CCc2cc(F)ccc2N1C(=O)c1cnc2sccn2c1=O (stereo not shown) | 16.2%
CCOC(=O)c1c(C)[nH]c(C(=O)OCc2ccccc2F)c1C | 14.4%
CC(C)C(NS(=O)(=O)c1cccc2nsnc12)C(=O)N1CCc2ccccc2C1 (stereo not shown) | 7.87%
O=C(Cn1c(=O)sc2ccccc21)OC(CCl)CCl | 14.8%
O=C(O)c1ccccc1NC(=O)c1ccccc1-c1ccccc1C(=O)O | 15.3%
COC(=O)c1ccc(NC(=O)CNc2ccccc2)cc1 | 8.51%
Cc1ccc(CN2CCN(Cc3cccn3-c3ccccn3)CC2CCO)cc1 (stereo not shown) | -82.4%
CCc1ccccc1N(CC(=O)NCc1ccco1)C(=O)c1snc(C(N)=O)c1N | 8.06%
O=C(c1ccc2c(c1)[nH]c(=S)n1c3ccccc3nc21)N1CCN(c2ncccn2)CC1 | -5.76%
O=C(Nc1cccc2ccccc12)c1ccc([N+](=O)[O-])s1 | 2.49%
COC(=O)C1Cc2c([nH]c3ccccc23)C(C)N1 (stereo not shown) | -7.31%
Cn1cc(CN2CCC(C(=O)N3CCCC3)CC2)c(-c2ccccc2F)n1 | 2.92%
COc1ccc(-c2nnc(NC(=O)c3cc(Cl)ccc3Cl)o2)cc1 | 5.11%
COC(=O)c1cccc(NC2CC(=O)N(c3ccc(OC)c(OC)c3)C2=O)c1 (stereo not shown) | 4.37%
Cc1ccc(-c2nn(C)c(=O)c3ccccc23)cc1S(=O)(=O)NCCN(C)C | 2.52%
O=C(O)COc1ccc2oc3ccccc3c2c1 | 8.83%
